Screen size: about 45,000 compounds; about 200 (0.44%) were called active. Another 7% or so got no clear call; they are omitted. Calls come from the whole dose curve; as a rule, active = well fitted activation curve with a large enough effect; inconclusive = small, poorly fitted or top-dose-only effect; inactive = no such curve, though single readings can be large or run the other way. This is one part of the list.
Potency is the fitted concentration of half-maximal effect.

The assay can be described thus: qHTS of TDP-43 Inhibitors: NCGC Sytravon Library Screen. For growth rescue (activation): 0% is about no effect. Note: nearly all actives have a fitted effect of over 55% in size. The note with it: yeast TDP-43 toxicity rescue, BacTiter-Glo growth, 24 h; series mostly up to 46.1 µM; growth rescue (activation): at the top concentration. In outline: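 TDP-43-expressing yeast, pregrown in raffinose, seeded at OD600 0.02 in galactose medium with compound for 24 hr at 30 deg C. Growth read by BacTiter-Glo luminescence, so rescue of toxicity appears as activation.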
A general note: Quantitative high-throughput screening tests each substance at several concentrations.
Consider `O=C(NC(=S)NNC(=O)[C@H]1C[C@@H]1c1ccccc1)c1cccc(F)c1`, for which the Potency is active: 12.6 µM.

Take `CC1CCN(CCCCOc2ccc(Cl)cc2)CC1`: the “growth rescue (activation)” value is inactive: -1.62%. Consider `COc1ccc(-c2n[nH]c(=S)n2N)c(OC)c1`, for which the “growth rescue (activation)” value was inactive: 1.92%.

Consider `CCN1/C(=C\C=C2\C(=O)N(c3ccccc3)C(=S)N2C)Sc2ccccc21`, for which the “growth rescue (activation)” value was inactive: -26.1%. Still for that read-out and setting: the value for `CCC(C)NC(=O)CN1C(=O)NC2(CCOc3ccccc32)C1=O` (stereo not given) was inactive: -5.32%. Turning to `CCCN(CCC)CCCNC(=O)C(NS(=O)(=O)c1ccc2c(c1)CCC(=O)N2)c1ccccc1` (stereo not given), the “growth rescue (activation)” value is inactive: -1.99%. In the case of `O=C(C1CCN(Cc2ccc(Cl)cc2)CC1)N1CCN(C(c2ccccc2)c2ccccc2)CC1`, the “growth rescue (activation)” value was inactive: -1.36%.

As for `NC(=O)c1ccc2c(c1)OCCO2`, the “growth rescue (activation)” value is inactive: -9.01%. Still for that read-out and setting: the value for `OC(CN1CCN(Cc2ccc3c(c2)OCO3)CC1)c1c[nH]c2ccccc12` (stereo not given) was inactive: 29%; that for `O=C(N/N=C/c1cc(Cl)ccc1O)C(=O)Nc1ccccc1OC(F)(F)C(F)F` was inactive: 4.06%; that for `CCC(Oc1ccccc1)C(=O)Nc1ccccc1C(=O)N1CCCCC1` (stereo not given) was inactive: 14.5%. On the same count and under the same terms, the value for `N#CCCn1cc(C(=O)Nc2ccc(C(=O)O)cc2)c(-c2cc3ccccc3o2)n1` was inactive: 1.33%; that for `CC(C)=C1C2CCC1C(C(=O)Nc1cc(C)cc(C)c1)C2C(=O)O` (stereo not given) was inactive: 29.4%.

With `O=[N+]([O-])c1cc([N+](=O)[O-])c2oc(-c3ccccc3)c(Br)c2c1O`, the “growth rescue (activation)” value was inactive: -85.2%. On to `CCOc1ccccc1NC(=O)CSc1nnc(C2CC2)n1CC`, for which the “growth rescue (activation)” value was inactive: 6.69%.

As for `Cc1[nH]c2ccccc2c1C(=O)/C=C/c1ccccc1Cl`, the “growth rescue (activation)” value was inactive: 12.7%. `Nc1ccc2nc(CCCCCCc3nc4ccc(N)cc4[nH]3)[nH]c2c1`: the “growth rescue (activation)” value was inactive: 8.36%. On the same count and under the same terms, the value for `O=C(CCC(=O)Nc1ccccc1Cl)NNC(=O)NC1CCCCC1` was inactive: -10.7%.

As for `CCc1ccc(/C=C(\Cl)c2nc3cc(Cl)ccc3c(=O)[nH]2)cc1`, the “growth rescue (activation)” value is inactive: 16.7%.

Take `C/C(CC(=O)NC(C)(C)C)=N\NC(N)=S`: the “growth rescue (activation)” value was inactive: 5.39%. `CCOC(=O)C1=C(c2ccccc2)N=C2SCC(=O)N2C1c1ccc2c(c1)OCO2` (stereo not given): the “growth rescue (activation)” value was inactive: 5.96%.

Regarding `COc1ccc(Br)c2c1-c1nc(NC(=O)c3cccc(C)c3)sc1C2`, the “growth rescue (activation)” value is inactive: 4.97%. Same read-out and setting: the value for `Cc1nonc1C(=O)N1CCCC(N2CCN(c3ccc(F)cc3)CC2)C1` (stereo not given) was inactive: -1.4%; that for `CCN(CC)CCCN(C)C(=O)Cn1nc(Cc2ccncc2)c2ccccc2c1=O` was inactive: 0.147%. As to `O=C(CN1CCC(NC(=O)Nc2ccc(F)cc2)CC1)Nc1ccccc1[N+](=O)[O-]`, the “growth rescue (activation)” value was inactive: -0.226%. Same read-out and setting: the value for `COc1ccc(-c2cc(CS(=O)(=O)c3ccccc3)on2)cc1` was inactive: 20.6%; that for `CCN(CC)CCNC(=O)Cn1ncc2ccccc2c1=O` was inactive: 3.47%; that for `O=C(N/N=C/c1cccc([N+](=O)[O-])c1)c1nc2ccccc2c(=O)[nH]1` was inactive: 7.83%.

Take `CN(C)S(=O)(=O)c1cccc(NC(=S)NC23CC4CC(CC(C4)C2)C3)c1`: the “growth rescue (activation)” value is inactive: 25%. Consider `O=C(NNC(=O)C1CCN(c2ncccn2)CC1)c1ccc(F)cc1`, for which the “growth rescue (activation)” value is inactive: 3.65%.

`COc1ccc(CC2(CO)CCN(C(C)Cc3ccc(Cl)cc3)CC2)cc1` (stereo not given): the “growth rescue (activation)” value was inactive: -12.8%.

With `Cc1ccc(S(=O)(=O)Nc2nc3ccccc3nc2N2CCOCC2)cc1`, the “growth rescue (activation)” value was inactive: 11.3%.

Take `COCCNC(=O)C(c1ccc(F)cc1)N(C(=O)CCC(=O)Nc1nccs1)c1ccc(C)cc1` (stereo not given): the “growth rescue (activation)” value was inactive: 0.576%.

As for `Cc1noc(C)c1COc1ccc(C(=O)NCC(c2c(F)cccc2Cl)N(C)C)cc1` (stereo not given), the “growth rescue (activation)” value was inactive: 13.2%. As for `COc1ccc(C(C(=O)NC2CCCCC2)N(Cc2cccnc2)C(=O)c2snc(C(N)=O)c2N)cc1` (stereo not given), the “growth rescue (activation)” value was inactive: -3.22%.

Consider `CCOc1ccc(S(=O)(=O)N(C)c2ccc(OCC(=O)NCC3CCCCC3)cc2)cc1`, for which the “growth rescue (activation)” value was inactive: 9.74%. Same read-out and setting: the value for `Cc1ccc(N(NC(=O)C(O)(c2ccccc2)c2ccccc2)C(=O)CCl)cc1` was inactive: 16.3%; that for `CCOc1ccc(S(=O)(=O)N2CCC(C(=O)NCc3ccncc3)CC2)cc1Cl` was inactive: 15.2%; that for `CCc1ccccc1-n1nnnc1SCC(=O)Nc1cc(C)on1` was inactive: -7.3%.

For `COc1ccc(/C=C/C(=O)NC(=S)Nc2cc3oc4ccccc4c3cc2OC)cc1`, the “growth rescue (activation)” value is inactive: 6.07%. Still for that read-out and setting: the value for `COc1ccc2nc(C)cc(NCc3ccc(F)cc3)c2c1` was inactive: 16.4%; that for `Cc1cc(=O)[nH]c(/N=C(\N)Nc2ccc(SC(F)F)cc2)n1` was inactive: 12.8%; that for `Cn1c(SCC(=O)NC(=O)NCc2ccccc2)nnc1C(F)(F)F` was inactive: 3.57%. Same read-out and setting: the value for `COc1ccc(OC)c(/C=N/NC(=O)C(=O)N2CCCC2)c1` was inactive: -13.4%. Regarding `COc1ccc(N(C(=O)C2COc3ccccc3O2)C(C(=O)NC2CCCCC2)c2ccccc2)cc1OC` (stereo not given), the “growth rescue (activation)” value was inactive: 14.6%. `COc1ccc(/C=C2\SC(=S)N(CCC(=O)Nc3ccccc3C(=O)O)C2=O)cc1`: the “growth rescue (activation)” value was inactive: -2.71%.

With `O=C1Nc2ccc(S(=O)(=O)NCCC3=CCCCC3)c3cccc1c23`, the “growth rescue (activation)” value is inactive: 7.05%. Still for that read-out and setting: the value for `Cc1ccc(CNC(=O)C(OC(=O)c2cccs2)C(C)C)cc1` (stereo not given) was inactive: -5.78%. Same read-out and setting: the value for `CCN(CC)c1ccc2c(C)c(Cl)c(=O)oc2c1` was inactive: 25.7%. In the case of `O=C(Nc1ccc2c(c1)CCO2)Nc1nnc([C@H]2C[C@H](O)[C@@H](CO)O2)s1`, the “growth rescue (activation)” value was inactive: -7.44%. Still for that read-out and setting: the value for `CCCCCn1c(=O)[nH]c2cc(C(=O)N3CCN(c4ccc(C(C)=O)cc4)CC3)ccc2c1=O` was inactive: 7.05%; that for `Cc1ccc(N(C(=O)c2snc(C(N)=O)c2N)C(C(=O)NCC2CCCO2)c2ccc3ncccc3c2)cc1` (stereo not given) was inactive: 4.05%; that for `O=C(NCCC1=CCCCC1)C1CCC(CNc2c(N3CCCCC3)c(=O)c2=O)CC1` (stereo not given) was inactive: 23.3%.

`O=C(N/N=C/c1cccc(Br)c1)C1CC(=O)N(c2ccccc2)C1` (stereo not given): the “growth rescue (activation)” value is inactive: 16.4%.

On to `COc1ccc(NC(=O)/C=C/c2ccc(OC(F)F)cc2)cn1`, for which the “growth rescue (activation)” value is inactive: 7.14%. Still for that read-out and setting: the value for `Oc1c(C(Nc2nccs2)c2ccc(C(F)(F)F)cc2)ccc2cccnc12` (stereo not given) was inactive: -70.3%; that for `CN(Cc1nc(-c2ccccc2)no1)C(=O)c1ccc2c(c1)OCO2` was inactive: -6.92%. Same read-out and setting: the value for `O=C(NCCc1ccc2c(c1)OCCO2)c1cc(S(=O)(=O)N2CCCC2)ccc1Cl` was inactive: 16.8%; that for `CC(C)C[C@@H](NC(=O)C1CCC(CNC(=O)[C@@H]2CCCN2C(=O)OC(C)(C)C)CC1)C(=O)O` (stereo not given in full) was inactive: -21.1%. On the same count and under the same terms, the value for `O=C(N/N=C/c1ccc(Cl)cc1Cl)c1cccc(N2CCCC2=O)c1` was inactive: 2.22%; that for `C=C1CCC[C@]2(C)C[C@H]3OC(=O)C(CN(C)CC(OC)OC)[C@H]3CC12` (stereo not given in full) was inactive: -4.4%; that for `CCc1nc2c(OCc3ccc(Cl)cc3)cccn2c1N(C=O)Cc1ccc(OC)cc1` was inactive: -6.34%. For `CCOc1cc(CNCC2CCCN2CC)cc(Cl)c1OC` (stereo not given), the “growth rescue (activation)” value was inactive: 7.68%. Same read-out and setting: the value for `CC(=O)NC12CC3CC(C1)CC(C(=O)NCc1ccc(C)cc1)(C3)C2` was inactive: -32.1%. Turning to `COCCNC(=O)CN(Cc1ccco1)C(=O)CCC(=O)Nc1nccs1`, the “growth rescue (activation)” value was inactive: 2.54%.

Values taken from PubChem BioAssay AID1347073 (National Center for Advancing Translational Sciences (NCATS), 2019).
